{"source": "PubChem BioAssay AID651820", "about": "(National Center for Advancing Translational Sciences (NCATS), 2012)", "note": "Hit rate of the full screen: of about 340,000 compounds, about 12,000 (3.5%) were called active. Inconclusive results, whose numbers are uncertain, are shown with a selection of clear calls. Calls come from the whole dose curve; as a rule, active = well fitted inhibition curve with a large enough effect; inconclusive = small, poorly fitted or top-dose-only effect, or another doubt; inactive = no such curve, though single readings can be large or run the other way. No potency is given beside an inconclusive call; the fits are too rough. % is set by controls: 0 for no effect and ±100 for the full control effect; potency is the fitted concentration of half-maximal effect; tags give direction and shape of the fitted curve."}
{"test": "qHTS Assay for Inhibitors of Hepatitis C Virus (HCV)", "conditions": "Huh7.5.1 HCVcc-Cre (HCVcc is cell-culture hepatitis C virus) infection, luciferase reporter, 44 h; activity change, negative = inhibition: at 41.8 µM (top of the series)", "how_it_was_run": "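Seed cells (1,000/well) for 4 h; treat with compound and infect with HCVcc-Cre, moi about 0.5. Incubate 44 h, then detect luciferase activity.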"}
{"compound": "Cc1cc(Nc2ccccc2)nn1C(=O)c1ccc(Br)cc1", "Potency": "active: 14.1 µM"}
{"compound": "N#CCCn1cc(C(=O)Nc2ccc([N+](=O)[O-])cc2)c(-c2cc3ccccc3o2)n1", "Potency": "inconclusive [inhibitor, single point]"}
{"compound": "Nc1ccc(C(=O)N/N=C/c2sc(N3CCOCC3)nc2-c2ccccc2)cc1", "Potency": "inconclusive [inhibitor, partial curve]"}
{"compound": "COc1ccccc1CN1C2CCCC1CC(NC(=O)/C=C/c1ccccc1)C2", "note": "(configuration not stated)", "Potency": "inconclusive [inhibitor, single point]"}
{"compound": "COc1ccc(NC(=O)c2cccc(S(=O)(=O)N3CCc4ccccc43)c2)cn1", "Potency": "inconclusive [inhibitor, single point]"}
{"compound": "Cc1nn(Cc2ccccc2Cl)c(Cl)c1C(=O)NCCc1ccccc1", "Potency": "inconclusive [inhibitor, partial curve]"}
{"compound": "O=C(NCc1cccnc1)NC1(c2ccccc2)CC1", "Potency": "inconclusive [inhibitor, single point]"}
{"compound": "COC(=O)[C@@]12CCCCN1[C@H](c1ccc(-c3ccc4c(c3)OCO4)c(OC)c1)[C@@H]1C(=O)N(C)C(=O)[C@@H]12", "Potency": "inconclusive [inhibitor, single point]"}
{"compound": "CC1CCCCC1NC(=O)COC(=O)COc1ccccc1F", "note": "(configuration not stated)", "activity change, negative = inhibition": "inactive: 1.49%"}
{"compound": "CCOC(=O)c1ccc(N=C2C(=S)N(c3ccc(C(=O)OCC)cc3)C(=N)N2/N=C/c2ccccc2)cc1", "Potency": "inconclusive [inhibitor, partial curve]"}
{"compound": "Cc1cc(C)c2cc3c(N)c(C(=O)Nc4c(C)[nH]c(=O)[nH]c4=O)sc3nc2c1", "activity change, negative = inhibition": "inactive: -7.13%"}
{"compound": "N#Cc1c(NC(=O)c2cc([N+](=O)[O-])ccc2N2CCOCC2)sc2c1CCCC2", "activity change, negative = inhibition": "inactive: -20.1%"}
{"compound": "COc1ccc2[nH]cc(CCN3C(=O)CCC3=O)c2c1", "activity change, negative = inhibition": "inactive: 5.79%"}
{"compound": "O=C(NC12CC3CC(CC(C3)C1)C2)c1ccc(-c2ccccc2Cl)o1", "activity change, negative = inhibition": "inactive: -9.13%"}
{"compound": "Cc1ccc(C(C(=O)NC2CCCC2)N(Cc2ccco2)C(=O)CCC(=O)Nc2cc(C)on2)cc1", "note": "(configuration not stated)", "Potency": "inconclusive [inhibitor, single point]"}
{"compound": "O=C1CC(c2ccc(Cl)cc2)SC(N(c2ccccc2)c2ccccc2)=N1", "note": "(configuration not stated)", "activity change, negative = inhibition": "inactive: 2.57%"}
{"compound": "COc1cc2cc(CCCOC(=O)c3cccc(Br)c3)oc(=O)c2cc1OC", "activity change, negative = inhibition": "inactive: -0.165%"}
{"compound": "N#Cc1sc2nc(-c3cccs3)cc(-c3ccc(F)cc3)c2c1N", "Potency": "inconclusive [inhibitor, full curve]"}
{"compound": "Cc1cc(-c2ccc(NC(=O)[C@@H]3CCCC[C@@H]3C(=O)O)c(C)c2)ccc1NC(=O)[C@@H]1CCCC[C@@H]1C(=O)O", "activity change, negative = inhibition": "inactive: -10.4%"}
{"compound": "CCC1CCCCN1C(=O)CSc1nnc2nc(C)cc(C)n12", "note": "(configuration not stated)", "activity change, negative = inhibition": "inactive: 19%"}
{"compound": "O=[N+]([O-])c1cccc(-c2nc(-c3cccs3)c(-c3cccs3)[nH]2)c1", "Potency": "active: 12.6 µM"}
{"compound": "CN(CC(=O)Nc1ccccc1Br)C(=O)COc1ccc2ccccc2c1", "Potency": "inconclusive [inhibitor, single point]"}
{"compound": "C=CCc1ccccc1OCC(O)CN1CCN(c2ccc(OC)cc2)CC1", "note": "(configuration not stated)", "Potency": "inconclusive [inhibitor, single point]"}
{"compound": "COc1cc(/C=C2/C(=N)N3C=CSC3=NC2=O)ccc1OCCCOc1cc(C)ccc1C", "Potency": "inconclusive [inhibitor, partial curve, poor fit]"}
{"compound": "CC(=O)OC1(c2ccccc2)CCN(C)C2CCCCC21", "note": "(configuration not stated)", "Potency": "inconclusive [inhibitor, single point]"}
{"compound": "CCOc1ccc(C(=O)CCC(=O)N2CCN(S(=O)(=O)c3cccc(F)c3)CC2)cc1", "Potency": "inconclusive [inhibitor, single point]"}
{"compound": "CCn1c(SCC(=O)c2cccs2)nnc1-c1cccs1", "activity change, negative = inhibition": "inactive: 17.8%"}
{"compound": "O=C1CCCN1c1ccc(S(=O)(=O)NCCOc2ccccc2)cc1", "activity change, negative = inhibition": "inactive: -22.7%"}
{"compound": "CC(C)CC(=O)Nc1ccc2c3c(cccc13)CC2", "activity change, negative = inhibition": "inactive: -4.95%"}
{"compound": "Cc1nc2c(c(C)nn2-c2ccccc2)c(C)c1CCC(=O)Nc1ccc(CN2CCCC2)cc1", "Potency": "inconclusive [inhibitor, full curve]"}
{"compound": "c1ccc2c(C[C@@H]3CNCCN3CC3CCCCC3)cccc2c1", "Potency": "inconclusive [inhibitor, full curve, poor fit]"}
{"compound": "CCc1ccc2oc(=O)cc(CN3CCCCC3C)c2c1", "note": "(configuration not stated)", "Potency": "inconclusive [inhibitor, single point]"}
{"compound": "CSCCC(NC(=O)c1ccccc1Cl)C(=O)N1CCN(C(C)=O)CC1", "note": "(configuration not stated)", "activity change, negative = inhibition": "inactive: -2.45%"}
{"compound": "COc1ccc(NC(=S)NCCc2ccccc2)c(OC)c1", "Potency": "active: 22.4 µM"}
{"compound": "Clc1cccc(Cl)c1C1N2CCCN12", "note": "(configuration not stated)", "activity change, negative = inhibition": "inactive: 6.14%"}
{"compound": "Cc1ccc(OCCNC(=O)c2cccc(S(=O)(=O)NCc3ccccc3)c2)cc1", "Potency": "inconclusive [inhibitor, full curve]"}
{"compound": "CCOc1cc(C(=O)Nc2cc(C)ccn2)cc(OCC)c1OCC", "Potency": "inconclusive [inhibitor, full curve, poor fit]"}
{"compound": "COc1cccc(S(=O)(=O)NCc2ccc(C(=O)Nc3cccc(Cl)c3)cc2)c1", "Potency": "active: 10 µM"}
{"compound": "COc1ccc(OCCN2CCOCC2)cc1", "activity change, negative = inhibition": "inactive: 10.4%"}
{"compound": "Cc1ccc(S(=O)(=O)Nc2csc(C)c2C(=O)O)cc1", "activity change, negative = inhibition": "inactive: 6.49%"}
{"compound": "CC(=O)N1CCOc2ccc(S(=O)(=O)N3CC(C)CC(C)C3)cc21", "note": "(configuration not stated)", "Potency": "inconclusive [inhibitor, single point]"}
{"compound": "Cc1ccc(S(=O)(=O)N2CCCC2CNC(=O)C(=O)NCCN2CCOCC2)cc1", "note": "(configuration not stated)", "activity change, negative = inhibition": "inactive: -16.7%"}
{"compound": "COc1ccc2c(c1)c(CC(=O)Nc1ccccc1OC)c(C)n2C(=O)c1ccc(Cl)cc1", "Potency": "inconclusive [inhibitor, single point]"}
{"compound": "O=C(CN1C(=O)C2CCCCC2C1=O)Nc1nc(-c2ccc(F)cc2)cs1", "note": "(configuration not stated)", "Potency": "inconclusive [inhibitor, single point]"}
{"compound": "COc1cccc(C2Nc3cc(Cl)c(S(N)(=O)=O)cc3S(=O)(=O)N2)c1", "note": "(configuration not stated)", "activity change, negative = inhibition": "inactive: 29.5%"}
{"compound": "Cc1cc(F)ccc1NC(=O)CCc1c(C)nn(-c2ccc(N3CCCCC3)nn2)c1C", "Potency": "inconclusive [inhibitor, single point]"}
{"compound": "CCCCCn1c(CCCNC(=O)CC)nc2ccccc21", "Potency": "inconclusive [inhibitor, single point]"}
